Assay results reported in PubChem BioAssay AID485294 (National Center for Advancing Translational Sciences (NCATS), 2010).
In all, about 370,000 compounds went through this assay and about 150 (0.041%) were called active. This list was built around the results that the source calls inconclusive (neither active nor inactive); the mix of calls is not that of the screen. Calls follow the shape of the dose curve; as a rule, active = well fitted inhibition curve with a large enough effect; inconclusive = small, poorly fitted or top-dose-only effect; inactive = flat fitted curve, though single readings scatter. No potency is given beside an inconclusive call; the fits are too rough.
Also: nearly all actives have a fitted effect of over 25% in size.
Potency is read from the fitted curve at half-maximal effect; tags tell the direction and shape of the fitted curve.

The compounds below were run against Beta-lactamase (Escherichia coli (strain K12)) (UniProt P00811) (assay: qHTS Inhibitors of AmpC Beta-Lactamase (assay with detergent)). Details: AmpC hydrolysis of nitrocefin, absorbance 480 nm, 0.01% Triton; series mostly up to 114 µM.
Sequence of UniProt P00811 (P00811 whole entry, looked up): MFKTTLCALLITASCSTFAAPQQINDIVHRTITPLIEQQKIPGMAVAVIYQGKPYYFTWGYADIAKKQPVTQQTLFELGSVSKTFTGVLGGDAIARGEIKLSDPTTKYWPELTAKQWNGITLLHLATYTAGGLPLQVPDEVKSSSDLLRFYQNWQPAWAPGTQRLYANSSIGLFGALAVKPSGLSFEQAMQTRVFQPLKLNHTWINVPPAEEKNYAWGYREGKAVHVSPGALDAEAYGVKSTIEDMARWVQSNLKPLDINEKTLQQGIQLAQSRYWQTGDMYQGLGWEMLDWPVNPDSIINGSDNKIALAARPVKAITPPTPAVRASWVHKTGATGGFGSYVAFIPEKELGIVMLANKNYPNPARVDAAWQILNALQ
Summary of the method: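 20 mM phosphate pH 7.0 + 0.01% (detergent screen) or 0.0001% Triton X-100; 5.3 nM AmpC reagent; cpd preinc 15 min RT; nitrocefin (800 uM stock) to start; A480 q20 s × 4 min; Activity was normalised to no-enzyme and no-compound control wells.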
In the case of `CCN(CC)CCN(C(=O)C1=COCCO1)c1nc2ccc(C)cc2s1`, the Potency is reported as inconclusive [inhibitor, full curve, poor fit].
`CCOc1ccc(C2=Nn3c(nnc3-c3ccc(OC)cc3)SC2)cc1` was tested, and the Potency was inconclusive [inhibitor, full curve, poor fit].
For `CC(C)CCn1c(SCc2ccc(Cl)cc2)nc2c1c(=O)[nH]c(=O)n2C`, the Potency was “inactive”.
`COc1ccc2cc(CCNC(=O)C3CCCC3)c(=O)[nH]c2c1` was tested, and the Potency was inconclusive [inhibitor, partial curve].
In the case of `CC(C)CCNC(=O)/C=C/c1ccc(Br)cc1`, the Potency is reported as “inactive”.
With `Cc1ccc(CSc2nnc(-c3cccc(S(=O)(=O)N4CCOCC4)c3)n2CC(C)C)cc1` the Potency was inconclusive [inhibitor, full curve, poor fit].
In the case of `Cc1ccc(NC(=O)COC(=O)COc2cccc3c2OC(C)(C)C3)c(C)c1`, the Potency is reported as “inactive”.
For `O=C(Nc1cccnc1)c1ccc(Oc2ccccc2)cc1`, the Potency was inconclusive [inhibitor, full curve, poor fit].
For `COc1ccc(N(CCC#N)S(=O)(=O)c2cccc3nsnc23)cc1`, the Potency was “inactive”.
`CCCCn1c(O)c(C(CC)=Nc2ccc3c(c2)CCC3)c(=O)[nH]c1=O` was tested, and the Potency was inconclusive [inhibitor, full curve, poor fit].
`Cn1nnnc1SCCNCc1ccncc1` was tested, and the Potency was inconclusive [inhibitor, full curve, poor fit].
`CC1CCc2nc3ccccc3c(C(=O)OCC(=O)N(C)C3CCS(=O)(=O)C3)c2C1` (configuration not stated) was tested, and the Potency was inconclusive [inhibitor, partial curve].
In the case of `CCSc1cc(N2CCOCC2)nc(-c2ccccc2)n1`, the Potency is reported as inconclusive [inhibitor, full curve].
With `O=C1CC(c2ccc(F)cc2)Cc2nc(NCc3ccco3)ncc21` (configuration not stated) the Potency was “inactive”.
In the case of `O=C1CC(c2cccs2)c2cc3c(cc2N1)OCO3` (configuration not stated), the Potency is reported as inconclusive [inhibitor, partial curve, poor fit].
With `COc1cccc2cc(C(=O)C3=C(O)C(=O)N(c4cc(C)on4)C3c3cccs3)oc12` (configuration not stated) the Potency was “inactive”.
In the case of `COc1ccc(NC(=O)c2c(NC(=O)CNCc3ccco3)sc3c2CCC3)c(OC)c1`, the Potency is reported as inconclusive [inhibitor, full curve].
With `O=C(CCl)NCCCN(C(=O)C(Cl)Cl)c1ccc([N+](=O)[O-])cc1` the Potency was inconclusive [inhibitor, full curve, poor fit].
For `O=C(CN1CCCC1)Nc1ccc(OC(F)(F)F)cc1`, the Potency was “inactive”.
With `CCN(CC)S(=O)(=O)c1cccc(-c2nnc(SCc3nnc(-c4ccccc4)o3)n2C)c1` the Potency was inconclusive [inhibitor, single point].
For `CC1CC(C)CN(C(=O)CCNS(=O)(=O)c2cccs2)C1` (configuration not stated), the Potency was “inactive”.
With `O=C(CCSc1nc2ccccc2s1)N/N=C/c1c(O)ccc2ccccc12` the Potency was inconclusive [inhibitor, full curve, poor fit].
For `COc1cc2sc(C)nc2c2sccc12`, the Potency was “inactive”.
With `COc1cccc(C(=O)OCCN2CCCCC2)c1` the Potency was “inactive”.
For `CC(C)c1nnc(NC(=O)CCCC(=O)O)s1`, the Potency was inconclusive [inhibitor, full curve, poor fit].
In the case of `CC1CCCC(NC(=O)COC(=O)c2cccs2)C1C` (configuration not stated), the Potency is reported as inconclusive [inhibitor, partial curve, poor fit].
In the case of `CC1CN(C(=O)CN2C(=O)c3ccccc3C2=O)CC(C)O1` (configuration not stated), the Potency is reported as inconclusive [inhibitor, full curve, poor fit].
For `CCOC(=O)c1[nH]c2ccc(Br)cc2c1NC(=O)CNC`, the Potency was inconclusive [inhibitor, full curve, poor fit].
With `O=C(CSc1nc2ccc(Cl)cc2[nH]1)NC1CCCc2ccccc21` (configuration not stated) the Potency was “inactive”.
`Cc1cc(C(F)F)n2nc(C(=O)O)nc2n1` was tested, and the Potency was inconclusive [inhibitor, full curve, poor fit].
With `O=S(=O)(c1ccccc1F)N1CCc2ccccc2C1` the Potency was inconclusive [inhibitor, full curve, poor fit].
`CC(NCc1cccc(OCc2ccccc2)c1)C(O)c1ccccc1` (configuration not stated) was tested, and the Potency was “inactive”.
`COCCSc1nnc(NC(=O)C2CCCO2)s1` (configuration not stated) was tested, and the Potency was inconclusive [inhibitor, full curve].
In the case of `COC(=O)c1sccc1NC(=O)CSc1cc(Cl)ccc1Cl`, the Potency is reported as inconclusive [inhibitor, full curve].
`O=C(NCCc1c[nH]c2ccccc12)c1ccccc1` was tested, and the Potency was “inactive”.
In the case of `Cc1ccsc1C(=O)NC(C)c1ccc2c(c1)OCO2` (configuration not stated), the Potency is reported as inconclusive [inhibitor, full curve, poor fit].
For `CCSc1ncc(Cl)c(C(=O)N(Cc2ccccc2Cl)C2CCS(=O)(=O)C2)n1` (configuration not stated), the Potency was “inactive”.
With `CCOC(CC(=O)NNC(=O)c1c(-c2ccccc2Cl)noc1C)OCC` the Potency was “inactive”.
`COc1ccc(CN2CCCCC2C)c(C)c1C` (configuration not stated) was tested, and the Potency was inconclusive [inhibitor, full curve].
`CC1(C)NC(=O)N(CCCOc2ccc(Br)cc2Cl)C1=O` was tested, and the Potency was “inactive”.
In the case of `C/C=C/c1ccc(OCCNCc2ccccc2)c(OC)c1`, the Potency is reported as inconclusive [inhibitor, partial curve, poor fit].
In the case of `Cc1cccc(C(=O)Oc2ccc(/C=N/NC(=O)c3ccccc3O)cc2)c1`, the Potency is reported as “inactive”.
For `C/C(=N/Nc1nc(-c2ccc(Cl)cc2)cs1)c1cccs1`, the Potency was “inactive”.
For `CCOC(=O)c1cccc(-[n+]2c(-c3ccccc3)cc(-c3ccccc3)cc2-c2ccccc2)c1`, the Potency was inconclusive [inhibitor, full curve, poor fit].
With `O=c1[nH]c(/C=C2\C=Nc3ccccc32)c(O)n1Cc1ccccc1F` the Potency was “inactive”.
For `Cc1ccc(Oc2nc3c(C)cccn3c(=O)c2/C=C(\C#N)C(N)=O)cc1`, the Potency was “inactive”.
With `Cn1cccc1Cc1nnc(SCC(=O)NCC2CCCO2)n1CCc1ccccc1` (configuration not stated) the Potency was inconclusive [inhibitor, single point].
With `Cc1ccc2c(c1)N(C(=O)CCC(=O)NCc1cccnc1)CC(C)O2` (configuration not stated) the Potency was inconclusive [inhibitor, partial curve, poor fit].
For `C=CCn1c(SCC(=O)c2c(N)n(C3CC3)c(=O)[nH]c2=O)nnc1-c1ccoc1C`, the Potency was “inactive”.
For `COc1cc2c(cc1NC(=S)NC(=O)/C=C/c1ccc(OC)c(OC)c1)oc1ccccc12`, the Potency was inconclusive [inhibitor, full curve, poor fit].
In the case of `CCOC(=O)C(CC)Sc1ncnc2sc3c(c12)CCCC3` (configuration not stated), the Potency is reported as “inactive”.
In the case of `Cc1ccc(S(=O)(=O)Nc2cccc(C(=O)NCC(C)(C)N3CCOCC3)c2)cc1F`, the Potency is reported as inconclusive [inhibitor, partial curve].
With `Cc1nc(-n2nc(C)c(Cc3ccccc3Cl)c2C)sc1C(=O)N1CCC(C)CC1` the Potency was “inactive”.
For `Cc1cccc(NC(=O)CSc2nnc(N)s2)c1`, the Potency was “inactive”.
For `c1ccc2c(c1)NC1(CCCCCC1)n1c-2nc2ccccc21`, the Potency was “inactive”.
In the case of `N#CCc1ccc(C(=O)c2ccccc2F)s1`, the Potency is reported as “inactive”.
`O=C(Cn1c(=O)c2cccn2c2cccnc21)N1CCN(c2ccccc2F)CC1` was tested, and the Potency was inconclusive [inhibitor, partial curve, poor fit].
In the case of `COc1ccc(NC(=O)Cn2nnc(-c3ccccc3NC(=O)c3cccs3)n2)cc1`, the Potency is reported as inconclusive [inhibitor, full curve, poor fit].
With `CCC(=O)Nc1ccc(N2CCOCC2)c(S(=O)(=O)Nc2ccc(OC)cc2)c1` the Potency was inconclusive [inhibitor, full curve, poor fit].
In the case of `COC(=O)c1ccc(CN2CCN(Cc3ccccc3)CC2)cc1`, the Potency is reported as inconclusive [inhibitor, partial curve, poor fit].
With `CCCc1[nH]nc2c1C(c1ccc(OC(=O)c3ccco3)cc1)C(C#N)=C(N)O2` (configuration not stated) the Potency was inconclusive [inhibitor, full curve, poor fit].
For `CCS(=O)(=O)C1=NSC2=NC(=O)/C(=C\c3ccc(OS(=O)(=O)c4ccccc4)cc3)C(=N)N21`, the Potency was inconclusive [inhibitor, full curve, poor fit].
For `COc1cccc(/C=C2/CN(C)CC3=C2OC(N)=C(C#N)C3c2cccc(OC)c2)c1` (configuration not stated), the Potency was inconclusive [inhibitor, partial curve].
`O=C(Cc1ccc(N(CCCl)CCCl)cc1)NC(Cc1ccc(Cl)cc1)C(=O)O` (configuration not stated) was tested, and the Potency was inconclusive [inhibitor, partial curve].
In the case of `Clc1ccc(-c2csc3ncnc(Cl)c23)cc1`, the Potency is reported as inconclusive [inhibitor, full curve, poor fit].
With `O=C(Nc1ccc2c(c1)CCC2)c1cccc(S(=O)(=O)N2CCN(c3ccccc3)CC2)c1` the Potency was “inactive”.
`CCCCCCn1c(N2CCC(C)CC2)nc2c1c(=O)[nH]c(=O)n2C` was tested, and the Potency was “inactive”.
In the case of `O=C1C2CC=C(Cl)CC2C(=O)N1CCCCCCN1C(=O)C2CC=C(Cl)CC2C1=O` (configuration not stated), the Potency is reported as inconclusive [inhibitor, full curve, poor fit].
With `CC(C)CCn1c(SCC(=O)Nc2ccccc2C(F)(F)F)nc2nccnc2c1=O` the Potency was “inactive”.
In the case of `CCOc1ccc(Nc2nc(Cc3nnc(SCC(N)=O)o3)cs2)cc1`, the Potency is reported as inconclusive [inhibitor, partial curve].
In the case of `Cc1cc(CNC(=S)Nc2ccc(S(=O)(=O)Nc3ncccn3)cc2)nn1C`, the Potency is reported as inconclusive [inhibitor, full curve, poor fit].
In the case of `COc1cccc(CN2CC(C(=O)NC3CCC(O)CC3)CCC2=O)c1` (configuration not stated), the Potency is reported as inconclusive [inhibitor, full curve].
